Reference: the supplement of paper PMC3334620
Over roughly 33,000 sequences, “E-score (-0.5 to 0.5)” has its median near -0.054; the highest 2% begin near 0.35. The list shows a part of the results.

What follows are sequences tested against T1, Stb5 (UniProt P38699) (assay: PBM E-score (8-mer binding enrichment) (E-score (-0.5 to 0.5)); higher = stronger / more preferred TF binding; most listed sequences are background and not binding sites). Conditions: protein concentration: 200 nM; construct: GST-full length.
T1 sequence: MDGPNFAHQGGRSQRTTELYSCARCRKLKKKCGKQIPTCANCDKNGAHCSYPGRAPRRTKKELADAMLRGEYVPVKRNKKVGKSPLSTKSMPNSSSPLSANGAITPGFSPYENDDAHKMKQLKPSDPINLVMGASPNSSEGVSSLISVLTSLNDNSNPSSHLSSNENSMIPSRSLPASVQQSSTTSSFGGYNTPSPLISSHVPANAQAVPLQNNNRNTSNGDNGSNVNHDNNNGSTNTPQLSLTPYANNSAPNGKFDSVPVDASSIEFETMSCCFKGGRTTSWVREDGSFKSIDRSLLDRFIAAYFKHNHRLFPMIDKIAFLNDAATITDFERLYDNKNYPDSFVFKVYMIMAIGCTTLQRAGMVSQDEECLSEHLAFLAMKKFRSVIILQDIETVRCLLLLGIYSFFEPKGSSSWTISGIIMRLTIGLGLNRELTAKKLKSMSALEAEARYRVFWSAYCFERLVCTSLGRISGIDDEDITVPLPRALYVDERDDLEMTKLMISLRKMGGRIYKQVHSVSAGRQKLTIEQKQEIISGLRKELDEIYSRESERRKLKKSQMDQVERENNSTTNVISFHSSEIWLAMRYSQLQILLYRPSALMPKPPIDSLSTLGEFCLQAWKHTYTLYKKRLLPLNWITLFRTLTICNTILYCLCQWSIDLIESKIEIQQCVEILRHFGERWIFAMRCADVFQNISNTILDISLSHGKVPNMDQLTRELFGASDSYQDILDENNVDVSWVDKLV
Procedure, shortened: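 The E-score, a modified Wilcoxon-Mann-Whitney statistic, was computed by the Universal PBM Analysis Suite for every ungapped eight-base word pooled with its reverse complement. Scans behind it were normalised with masliner after bound GST-tagged yeast transcription factors were detected with fluorescent anti-GST. The proteins, at about 100-200 nM, had been applied to universal all-10-mer Agilent arrays made double-stranded by primer extension.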

Sequence | PBM E-score
TGCGACAA | -0.0423
ACCCGAAC | 0.149
CGCCCCCA | -0.0403
GGAGCCAA | 0.00764
GCCGGGGA | 0.276
AACGCGGA | 0.188
GCTACTAA | 0.138
ATAGCATA | 0.0052
ATTAGGGG | -0.196
CACCCACA | -0.00969
GATTATCC | 0.0567
CCACGGGA | 0.135
AGGTACAC | -0.127
TAGACCCA | -0.208
AGGAAGGG | -0.177
ACTGTAGC | -0.0847
AAAAAAAA | 0.0519
CTCTAGCA | -0.236
CGGCCGTA | 0.346
AATCTTGG | -0.0505
CCGCCAGG | 0.193
TCCTCCCA | -0.103
CAGTGAGC | -0.151
ACGATTTA | -0.0849
GGAATCCA | -0.149

Sequence | PBM E-score
GGTAACGA | -0.085
ACGTATGA | -0.0693
CTACGGCC | 0.174
TGAATGCA | -0.174
CGTTCCCC | 0.0128
CCGGAATC | 0.22
CGGGGCAC | 0.133
AAGCCACT | -0.176
ACCCCTCC | -0.118
ACGAGACT | -0.243
AAGGAGAT | 0.0485
CTAGCAAA | 0.0912
CCGCAGGC | 0.233
CATTCGAC | -0.0682
ACCCTACA | -0.268
AAGCAGAA | -0.117
CCTAGTGC | 0.00057
AATTGGGC | -0.246
GAAAGCTA | -0.081
AGGGGTAG | -0.141
AGACAGTA | -0.205
GATTTTCA | -0.0236
AACGTCTG | -0.217
AATATCAT | 0.0574
AATCCTAA | -0.0777

Sequence | PBM E-score
TCCACAAA | -0.0835
ACTCAACT | -0.00213
ACCGATTG | 0.269
TAGACAGA | -0.196
GTAACGAA | -0.0882
AACATGCT | -0.261
AGATTCAA | -0.16
CAATATTG | -0.317
CGGGGCCC | 0.157
AATTGTCA | -0.169
CCCATACG | -0.134
CGTATGCA | -0.0425
AAAAGAGT | -0.09
AGAGAGGC | -0.204
CAGCCAGA | -0.15
GAAAGCTC | -0.234
GTACATGA | -0.209
GAGGGTCA | -0.209
CACCACGC | -0.0679
CATAAGCC | 0.0714
CAACGAGG | -0.0157
CTGGCATA | 0.0405
TCTAGTCA | -0.11
CAACGAGA | -0.134
CCGCGGTA | 0.399

Sequence | PBM E-score
GCTCTTAC | 0.0111
TGCTCAAA | 0.0446
ATTATCGA | -0.192
GGGGTCGA | 0.166
CATCATAC | -0.0943
GACTGAGC | -0.258
ATATCGAG | 0.116
ACGAAGCA | -0.22
CCCTCCTA | 0.0186
AATGCTCT | -0.142
GCAAATAC | -0.0999
GCCTAGTA | -0.0419
CATTATAA | 0.197
AGAGTTAC | -0.241
GATGGAAC | -0.124
AATGTTTG | -0.0299
ACAGTTGG | -0.203
AAGCATAG | -0.0769
ACAGCAAC | -0.0898
GTTTCCTA | -0.166
ATCCTAAG | -0.165
AAAACGGA | 0.23
CATTGTAC | 0.00498
CGTATCAC | 0.0363
AAAGACGT | -0.0995

Sequence | PBM E-score
CATGGTAG | -0.146
GATACAAA | 0.0377
CAGCGGGG | 0.358
AAGCGTGG | -0.208
AGAACGCT | -0.129
AAGAAATT | 0.00024
GACCTACA | -0.15
CCAATACG | 0.0347
GACACGGA | 0.158
TTCCAGAA | -0.0885
CTTACCCA | -0.246
AGGATCAG | -0.146
GAGATACA | 0.121
CTGCAATA | -0.0819
ACTTCAGC | -0.19
GATAGGAA | -0.00848
TGTGACAA | -0.153
GGATTACC | 0.115
ACACACAT | -0.207
GACTCTCA | -0.0159
GCCTCGGA | -0.0464
CAGTTGAG | -0.237
ACACAGCC | -0.0105
GCTGCGAA | -0.155
CGACACAA | -0.0889

Sequence | PBM E-score
AGATCACT | -0.11
GGTTCTTA | 0.0236
TACGTCTA | -0.259
CAGATAGC | -0.0877
GGCCGGGA | 0.263
AATCACAT | -0.0703
AAGTACTT | -0.00725
AGGTCGTC | -0.0116
CATCTAGA | -0.281
ACTTTTAG | 0.124
TGTTAACA | 0.101
GATTCGGA | -0.0369
ACGTGTCG | -0.168
GCTAGGAC | 0.0309
TCCCTCAA | -0.133
GGATATAA | 0.259
CCTACCCA | -0.195
CATTGGCC | -0.214
ATGGTCGC | -0.0607
ATACTCAG | -0.0787
CCATGATA | -0.0306
AGAGACCT | -0.26
GTGCACCA | -0.17
ACATAAGC | -0.0813
GCTGAGAC | -0.0818

Sequence | PBM E-score
GATGCAAA | -0.0132
CGAGCTAA | 0.0492
AGGCCTAT | -0.202
GCTAATGA | -0.0209
AACATCCT | -0.176
GCTGGAGA | -0.188
GGCGTGAC | -0.0272
GATGCCGA | 0.332
ACACTTGC | -0.249
GTATAACA | 0.143
AGACGGCT | 0.134
GCCGGGTA | 0.195
CGTCCGGC | 0.275
CCGGTTCA | 0.237
AAACCGGT | 0.304
GCGGTCCA | 0.187
GAGGTCAA | -0.145
ATCCAACC | 0.0538
GAAGAGGC | -0.173
AGCGTAGG | -0.0276
ATTGACAC | -0.0835
GCTCGCCC | -0.0285
AAATCTGC | -0.117
ACTGATAC | -0.0202
CGGAAGGA | 0.142

Sequence | PBM E-score
ATGGTTCA | -0.0452
GATAACTA | 0.0203
CTAGCATA | 0.0367
AACCCGTA | 0.115
AAGGAGTC | -0.117
CTGAGCGC | -0.13
AAATGGTA | -0.0932
CTTGATCC | 0.065
AAAATGCC | 0.247
CCTTAGAA | 0.0508
GTTCACAA | -0.209
ACTGCTAG | -0.181
AGGGGGGG | -0.251
AGACTTTG | -0.361
GATCAGTA | -0.16
AATTTTGA | -0.042
CCAAGGAA | -0.183
ACTATGGA | 0.00151
AAAGTGTC | 0.038
CCCGTCGA | 0.206
GATAAAAA | 0.0495
ATTTTTTC | -0.00215
ATATACTG | -0.0449
AGGCAAGC | -0.148
CGTCCCTA | -0.0559

Sequence | PBM E-score
CTGGCTGC | -0.193
CATGATAC | -0.0135
CGAGATTC | -0.165
CCAAGTAG | -0.293
CCTGGTCG | 0.0613
CTTTTGCC | 0.0873
ATTTCCTG | -0.105
GAGACCCC | 0.0637
GGACAGCA | -0.0843
CGAATGAA | 0.0336
CAAAATTA | 0.0298
CTGCTTCA | -0.299
CCCCAAGG | -0.156
CGTCATAA | -0.0418
AAACATGT | -0.043
CCAACTGA | -0.28
GTTGCACA | -0.249
AAATCCAC | -0.219
AGAGCTTG | -0.268
